Hit rate of the full screen: of about 48,000 compounds, about 450 (0.94%) were called active. Inconclusive results (about 19%) are left out. Calls come from the whole dose curve; as a rule, active = well fitted inhibition curve with a large enough effect; inconclusive = small, poorly fitted or top-dose-only effect; inactive = no such curve, though single readings can be large or run the other way. This is one part of the list.
assay: Primary qHTS for Identification of Small Molecule Inhibitors of Huntingtin Promoter Activity; conditions: HEK293 HTT promoter firefly luciferase reporter (activity 0% = vehicle and -100% = no light), 24 h; series mostly up to 57.5 µM; activity change, negative = inhibition: at the top concentration; note: nearly all actives have a fitted effect of over 50% in size
Method in brief: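 HEK293 Fluc reporter, 2,500 cells/well, 24 h pre-culture; cpds up to 57.5 uM final, 24 h 37 degrees C; Dual-Glo, 10 min RT; normalized vehicle = 0%, zero RLU = -100%.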

Activity change, negative = inhibition, inactive:
O=C(CCS(=O)(=O)c1cc(Br)cc2c1N(C(=O)C1CC1)CC2)N1CCN(c2cccc(Cl)c2)CC1 -8.43%, CCOc1ccccc1OCC1CNCCO1 (configuration not stated) -4.45%, CCCCNC(=O)C1CCC(Cn2c(=O)c3sccc3n(Cc3ccccc3)c2=O)CC1 (configuration not stated) 4.14%, O=C(Cn1c(=O)n(CCc2ccccc2)c(=O)c2cccnc21)Nc1ccc(F)cc1 21.4%, CCC(=O)N1CCc2cc(S(=O)(=O)NC(C(=O)NCCc3ccc(OC)c(OC)c3)C(C)C)ccc21 (configuration not stated) -11.9%, Cc1cc(C)c(NC(=O)c2nc3ccccc3nc2N2CCCCC2)c(C)c1 -12.9%, CCCCNC(=O)CSc1nc2cc3c(cc2c(=O)n1CCCC(=O)NCCc1ccc(OC)c(OC)c1)OCO3 -15.4%, COc1cc(NC(=O)C2CCN(C(=O)c3sc4nc[nH]c(=O)c4c3C)CC2)cc(OC)c1OC 2.31%, Cc1cc(C(=O)N2CCN(c3ccccc3)CC2)c2c(C)nn(-c3cccc(F)c3)c2n1 -14%, Cc1ccc(N2C(=O)c3n[nH]c(C)c3C2c2ccc(Cl)cc2)cc1 (configuration not stated) 38.1%, Cc1ccccc1CSc1nnc2[nH]c(=O)cc(-c3ccccc3)n12 -6.89%, Cc1ccc(CNC(=O)c2nn(-c3ccc(Cl)cc3)nc2CO)cc1 -22.2%, CCc1ccc(-n2c(=O)c3c4c(sc3n(Cc3cc(=O)n5c(C)cccc5n3)c2=O)CCC4)cc1 -3.65%, Cc1cc(C)cc(NC(=O)CSc2oc(-c3ccccc3)nc2S(=O)(=O)c2ccc(Cl)cc2)c1 -14.6%, CCOC(=O)c1ccccc1NC(=O)Cn1ncc2c1-c1ccccc1OC2 -2.07%, CC(C)OCCCNC(=O)C(=O)Nc1c2c(nn1-c1ccccc1)CS(=O)(=O)C2 -2.34%, CCc1ccccc1NS(=O)(=O)c1ccc2nc(-c3ccccc3)[nH]c2c1 -22.2%, CC(=O)NC(CS)C(=O)O (configuration not stated) 1.18%, Cc1ccc2c(c1)N(CC(=O)NCCc1ccccc1)C(=O)CO2 -10.8%, CCOC(=O)c1c(C)[nH]c(C)c1S(=O)(=O)N1CCC(C(=O)Nc2ccc(OCC)cc2)CC1 -17.9%, CCCCn1cc(S(=O)(=O)c2cc(C)ccc2C)c(=O)c2cc(F)c(N3CCC(C)CC3)cc21 -20.9%, CCCC(=O)Nc1cc2nn(-c3ccccc3)nc2cc1C 77.7%, CCc1cccc(NC(=O)CN(c2ccc(C)c(C)c2)S(=O)(=O)c2ccsc2C(=O)OC)c1 -9.7%, Cc1ccc(C)c(N2CCN(C(=O)CN3C(=O)COc4ccc(S(=O)(=O)N5CCCC5)cc43)CC2)c1 -13.4%, COc1ccc(C(=O)NCC(c2ccco2)S(=O)(=O)c2ccc(F)cc2)cc1 (configuration not stated) -33.7%, CCCCN(CCCC)CCCNC(=O)Cn1cc2c(n1)-c1c(oc(C(=O)N3CCCC3)c1C)CC2 -8.7%, CSc1ncc(C(=O)Nc2ccccc2C(F)(F)F)c(-c2ccccc2)n1 1.29%, CCCc1nc2nc(C)c(NS(=O)(=O)c3ccc(CC(C)C)cc3)c(=O)n2[nH]1 -12.4%, CCCn1c(CCC(=O)Nc2cc(C(=O)OC)cc(C(=O)OC)c2)nc2cccnc21 -16.8%, CCCn1c(CCC(=O)Nc2cc(OC)cc(OC)c2)nc2cccnc21 -17.8%, CCOC(=O)c1[nH]cnc1C(=O)Nc1cccc(OC)c1 -7.86%, Cc1cc(NC(=O)CCn2c(=O)c3cccn3c3cccnc32)ccc1Br 3.06%, NC(=O)Cc1cccc(C(=O)c2ccccc2)c1N, CCC(=O)N1c2ccccc2CC1C(=O)NCCc1cc(OC)c(OC)c(OC)c1 (configuration not stated) 0%, CCCN1CCN(c2nnc(-n3cccc3C(=O)Nc3cc(Cl)ccc3C)s2)CC1 -24.5%, CCSc1ncc(Cl)c(C(=O)Nc2nc3ccc(S(C)(=O)=O)cc3s2)n1 -18.6%, Cc1ccc(NC(=O)C2CCCN(S(=O)(=O)c3cccc4nsnc34)C2)cc1C (configuration not stated) -29.5%

— PubChem BioAssay AID1508623 (National Center for Advancing Translational Sciences (NCATS), 2021)
